# In PubChem BioAssay AID1671189 (National Center for Advancing Translational Sciences (NCATS), 2021):
# Out of some 1,100 compounds screened, about 70 (6%) were called active. Another 22% or so got no clear call; they are omitted. The call rests on the fitted dose curve; in most records, active means well fitted curve in the direction sought with a large enough effect; inconclusive means small, poorly fitted or top-dose-only effect, or another doubt; inactive means no such curve, though single readings can be large or run the other way. This is one part of the list.
# Biological target: Polyunsaturated fatty acid lipoxygenase ALOX12 (Homo sapiens) (UniProt P18054)
# Experiment: Confirmatory qHTS assay for inhibitors of human arachidonate 12S-lipoxygenase (ALOX12): Round 2
# Conditions: purified human 12-LOX, xylenol orange absorbance; series mostly up to 125 µM; activity change, negative = inhibition: at the top concentration
# In short: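 Purified human enzyme (150 nM) in 25 mM Hepes, 0.01% Triton X-100, pH 7.0, preincubated 15 min with compound, then 40 uM arachidonic acid for 30 min at room temperature. Hydroperoxide detected by Fe-XO, read as 573/405 nm absorbance ratio.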
# On the % scale 0 is the no-effect control and ±100 the full control effect; potency means the concentration at half of the fitted maximal effect.
# UniProt P18054, sequence (P18054 whole entry, looked up): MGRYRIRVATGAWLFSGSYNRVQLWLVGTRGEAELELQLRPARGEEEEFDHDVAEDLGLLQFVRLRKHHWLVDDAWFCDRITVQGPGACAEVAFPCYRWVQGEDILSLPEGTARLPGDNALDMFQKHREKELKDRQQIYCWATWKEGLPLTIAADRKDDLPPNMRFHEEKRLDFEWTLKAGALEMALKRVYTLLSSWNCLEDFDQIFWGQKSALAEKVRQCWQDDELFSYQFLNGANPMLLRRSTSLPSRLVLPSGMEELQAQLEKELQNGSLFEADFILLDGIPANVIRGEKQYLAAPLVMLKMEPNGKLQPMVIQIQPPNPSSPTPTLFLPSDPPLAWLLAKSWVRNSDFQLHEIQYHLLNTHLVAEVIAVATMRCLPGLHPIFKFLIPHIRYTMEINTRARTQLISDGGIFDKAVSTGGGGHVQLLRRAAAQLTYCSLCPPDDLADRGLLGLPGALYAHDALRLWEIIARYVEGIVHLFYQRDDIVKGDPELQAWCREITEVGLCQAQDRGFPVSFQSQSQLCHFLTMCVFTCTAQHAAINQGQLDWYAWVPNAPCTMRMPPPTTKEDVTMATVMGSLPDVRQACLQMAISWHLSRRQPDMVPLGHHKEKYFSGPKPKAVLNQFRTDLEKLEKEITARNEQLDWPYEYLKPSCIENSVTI
SMILES,"activity change, negative = inhibition",Potency
O=C1NC2(Cc3ccccc31)CN(C(=O)c1cccc3c1OC(F)(F)O3)C2,inactive: -9.79%,–
c1ccc(-n2cc(CN3CCCN(Cc4cccs4)CC3)nn2)cc1,inactive: 7.68% [at 64.5 µM],–
COc1ccc(CN2CCCC23Cc2ccccc2CNC3=O)cc1OC (configuration not stated),inactive: -7.9%,–
C=CCn1cc(CN(Cc2ccco2)Cc2cccs2)c(C)n1,–,active: 10 µM
O=C(c1ccc(-c2ncc3cnc(-c4cccc(F)c4)cn23)cc1)N1CC(O)C1,inactive: -28.1% [at 64.5 µM],–
CN1CC(=O)N(c2ccccc2F)Cc2c(NC3CCNCC3)ncnc21,inactive: -12.6%,–
COc1cccc(N2C(=O)NC(=NC3CCCCC3)C23CCN(CC2CC2)CC3)c1,inactive: -9.03%,–
COc1ccc(-c2cc(C(=O)NCC3CC3)c3c(C4CCNC4)noc3n2)cc1 (configuration not stated),inactive: -23%,–
COC(=O)[C@@H]1Cc2ncn(Cc3ccc(OC)cc3)c2CN1CCCc1ccccc1,inactive: 14.5%,–
COc1ccc(-c2nc(C3CC3)nc3c2CCN(C(=O)c2ccc(C(F)(F)F)cc2)CC3)cc1,inactive: -23.3%,–
O=C1CO[C@H]2CN(C3CCC3)C[C@H]2N1Cc1ccc(F)cc1,inactive: 2.06% [at 64.5 µM],–
NCC(C1CCCCC1)N1CCCC1 (configuration not stated),inactive: 3.96% [at 233 µM],–
CCN1CCCC2(Cc3ccccc3CN(C(=O)c3ccccc3)C2)C1 (configuration not stated),inactive: -11.8%,–
CCCC(=O)N1Cc2ccccc2CC2(CCCN(C)C2)C1 (configuration not stated),inactive: -21.2%,–
CCC(=O)N1Cc2ccccc2CC2(CCN(Cc3ccncc3)CC2)C1,inactive: 1.87%,–
O=C(N1CCCCC1)N1CCN(c2ccc(Cl)nn2)C(=O)C1,inactive: -27.3%,–
O=Cc1ccc(-c2ccc(F)cc2)cc1,inactive: -27.9% [at 233 µM],–
Cc1ccc(C(=O)N2CCC(N3Cc4ccccc4C3=O)CC2)cc1,inactive: -0.341%,–
O=C(c1ccccc1F)N1CCn2c(nnc2C2CCNCC2)C1,inactive: -11.9%,–
CN1CCC(C(=O)N2Cc3ccccc3CC3(CCCN(CC4CCNCC4)C3)C2)CC1 (configuration not stated),inactive: -15.7%,–
COc1ccccc1C(O)c1nc(Nc2ccc(C(C)C)cc2)n[nH]1 (configuration not stated),inactive: 28.8% [at 64.5 µM],–
Cc1nn2c(c1-c1cccnc1N1CCOCC1)N(CC1CC1)CCC2,inactive: 12.4% [at 64.5 µM],–
COC(=O)[C@@H]1Cc2nc[nH]c2CN1Cc1ccc(C)cc1,inactive: 43.8% [at 233 µM],–
Cn1nc(C2CCCN2)c2c(C(=O)NCc3cccs3)cc(C3CC3)nc21 (configuration not stated),inactive: -15.3%,–

SMILES,"activity change, negative = inhibition",Potency
O=C(c1ccccc1)N1CCCC2(CC(c3cccc(C(F)(F)F)c3)=NO2)C1 (configuration not stated),inactive: -21%,–
Cc1cc(C)n(C2CN(c3cc(C4CC(O)C4)nc(C)n3)C2)n1 (configuration not stated),inactive: 8.32% [at 64.5 µM],–
COCCNC(=O)c1cc(C)nc2onc(C3CCNC3)c12 (configuration not stated),inactive: -16.4%,–
O=C(c1ccncc1)N1CCCC(c2nnc3n2CCNC3)C1 (configuration not stated),inactive: -17.5%,–
O=Cc1ccccc1-c1ccc(OC(F)(F)F)cc1,inactive: -10.5% [at 233 µM],–
NCc1ccc(-c2ccc(F)cc2)cc1,inactive: 0.628%,–
O=C(Cc1ccccc1)NCc1nnc2n1C(C(=O)O)CC2 (configuration not stated),inactive: -14.1%,–
Nc1ccccc1CN1CCCC2(Cc3ccccc3CNC2=O)C1 (configuration not stated),inactive: -0.411%,–
NCCC(=O)N1CCC2(CC1)CN(C(=O)Cc1ccc(Cl)cc1)CCO2,inactive: -12.1%,–
CCC(=O)NC(c1ccco1)c1cc(Cl)c2cccnc2c1OC (configuration not stated),inactive: 10.7% [at 64.5 µM],–
CC(C)CN1CCC(c2nc3ccc(F)cc3c(=O)[nH]2)CC1,inactive: -26%,–
O=C(OCC#CCSc1nnc(-c2cccc3ccccc23)o1)c1ccc(F)cc1,inactive: -16.4% [at 64.5 µM],–
Cn1cc(CN[C@H]2[C@H](O)[C@H](O)C[C@@H]2c2ccccc2)c2ccccc21,inactive: -9.34% [at 64.5 µM],–
COCCNC(=O)c1cc(C2CC2)nc2onc(C3CCCN3)c12 (configuration not stated),inactive: -17.5%,–
Cc1ccc(CN2CCC3(Cc4ccccc4CNC3=O)C2)cc1C (configuration not stated),inactive: -25.3%,–
Cc1cc(C(=O)N2CCOCC2)c2c(C3CCNCC3)noc2n1,inactive: -16.5%,–
COC(=O)[C@H](c1ccccc1Cl)N1CCc2sccc2C1,inactive: -3.69%,–
Cc1cc(Cl)ccc1-c1ccccc1CN,inactive: -6.92%,–
CN1CC(=O)N(C2CCCNCC2)Cc2c1ncnc2N1CCCC(CO)C1 (configuration not stated),inactive: -7.7%,–
COc1cccc([S+](=O)([O-])N2CCn3c(nn(-c4ccc(Cl)cc4)c3=O)C2)c1,inactive: -7.73%,–
CCOC(=O)Cn1c(=O)n(-c2ccccc2OC)c2nc(-c3ccccc3F)nc(C(N)=O)c21,–,active: 11 µM
CN1CC(=O)N(C2CCNCC2)Cc2c(NC3CCCCC3O)ncnc21 (configuration not stated),inactive: -12.2%,–
COCCCNc1nc2c(S(=O)(=O)c3c(C)cc(C)cc3C)nnn2c2ccccc12,inactive: -28.1%,–
COc1ccc(-c2cc(C(=O)NC3CC3)c3c(C4CCNCC4)noc3n2)cc1,inactive: -20.3%,–

SMILES,"activity change, negative = inhibition",Potency
CN1CCCC1CCNc1nccc(-c2cnn(-c3ccc(F)cc3)c2)n1 (configuration not stated),inactive: 2.07% [at 64.5 µM],–
Cc1ccccc1N(C)C1CN(C(=O)OC(C)(C)C)C1,inactive: -11.2%,–
O=C1CCN(C(=O)[C@@H]2CCCN2Cc2ccc(C(F)(F)F)cc2)CCCCCCN1,inactive: 0.301% [at 64.5 µM],–
CN(c1ccccc1)C1CNC1,inactive: -27.1% [at 233 µM],–
Cc1ccsc1CN1CCC2(Cc3ccccc3CNC2=O)C1 (configuration not stated),inactive: -17.9%,–
CC(C)C[C@@H](N)C(=O)O,inactive: -4.33%,–
O=C1Nc2ccccc2CC12CN(CC1CCCC1)C2,inactive: 13.7%,–
CN1CC(=O)N(C2CCCNCC2)Cc2c(NCc3cccc(Cl)c3)ncnc21 (configuration not stated),inactive: -4.28%,–
CN1CC(=O)N(C2CCCNCC2)Cc2c1ncnc2N1CCCCC1 (configuration not stated),inactive: -11.5%,–
COc1ccc(CNc2ncnc3c2CN(C2CCNCC2)C(=O)CN3C)cc1,inactive: -18.4%,–
O=C1Nc2ccccc2C12CCN(S(=O)(=O)c1ccccc1)C2 (configuration not stated),inactive: -17.9%,–
CCCNC(=O)[C@@H]1Cc2c[nH]c3cccc(c23)[C@H](CC(C)C)N1,inactive: 21.6% [at 64.5 µM],–
CC(Cc1ccncc1)Nc1nccc(-c2cnn(-c3ccccc3F)c2)n1 (configuration not stated),inactive: 10.8% [at 64.5 µM],–
CNc1ncc(-c2cccc3ccccc23)o1,inactive: -20.5% [at 64.5 µM],–
CC(C)Nc1oc(-c2cccc3ccccc23)nc1C#N,inactive: 11.9% [at 64.5 µM],–
O=C(c1ccccc1)N1CCC2(CC1)C(=O)NCN2C(=O)CCCN1CCCC1,inactive: -14%,–
CNC(C)c1cccc(F)c1 (configuration not stated),inactive: -12.5% [at 233 µM],–
CN1CC(=O)N(C2CCCNCC2)Cc2c1ncnc2N1CCSCC1 (configuration not stated),inactive: -4.95%,–
COc1ccc(NCCN2CCCC2)cc1,inactive: -43.3% [at 233 µM],–
CN1CC(=O)N(C2CCCNCC2)Cc2c(NCCc3ccccc3F)ncnc21 (configuration not stated),inactive: -17.6%,–
O=C(N1CCCC1)N1CCN(c2ccc(Cl)nn2)C(=O)C1,inactive: -25.5%,–
O=C1NC(=NC2CCCC2)C2(CCCN([S+](=O)([O-])c3cccc(C(F)(F)F)c3)C2)N1c1cc(F)cc(F)c1 (configuration not stated),inactive: -17.6%,–
CCc1nc2c(c(-c3ccc(OC)cc3)n1)CN([S+](=O)([O-])c1cccc(OC)c1)CC2,inactive: -23%,–
FC(F)(F)c1ccc(N2C3CCC2CN(CC2CCCC2)C3)cc1,inactive: -12.6%,–
